# Source: paper PMC11249618
# Amino acid sequences for entries named in this document (tags omitted). A change or cut given only in a name is not applied to a line headed by its entry.
# UniProt Q8IXI1: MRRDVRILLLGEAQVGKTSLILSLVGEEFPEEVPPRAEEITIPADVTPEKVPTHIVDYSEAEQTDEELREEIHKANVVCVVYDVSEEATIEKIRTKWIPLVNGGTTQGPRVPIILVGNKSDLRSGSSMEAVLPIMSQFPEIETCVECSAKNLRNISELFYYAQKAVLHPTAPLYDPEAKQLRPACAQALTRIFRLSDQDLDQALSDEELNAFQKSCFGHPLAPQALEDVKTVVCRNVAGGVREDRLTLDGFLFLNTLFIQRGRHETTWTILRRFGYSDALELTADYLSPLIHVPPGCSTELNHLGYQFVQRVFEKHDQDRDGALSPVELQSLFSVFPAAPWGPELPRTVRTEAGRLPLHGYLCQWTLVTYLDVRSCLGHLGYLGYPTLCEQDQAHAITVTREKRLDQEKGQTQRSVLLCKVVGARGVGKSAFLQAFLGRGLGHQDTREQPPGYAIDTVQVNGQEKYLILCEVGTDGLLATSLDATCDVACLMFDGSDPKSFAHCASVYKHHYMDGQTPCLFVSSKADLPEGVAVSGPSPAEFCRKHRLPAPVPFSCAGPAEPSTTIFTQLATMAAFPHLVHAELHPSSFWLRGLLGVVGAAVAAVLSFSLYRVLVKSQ
# UniProt Q8IXI2: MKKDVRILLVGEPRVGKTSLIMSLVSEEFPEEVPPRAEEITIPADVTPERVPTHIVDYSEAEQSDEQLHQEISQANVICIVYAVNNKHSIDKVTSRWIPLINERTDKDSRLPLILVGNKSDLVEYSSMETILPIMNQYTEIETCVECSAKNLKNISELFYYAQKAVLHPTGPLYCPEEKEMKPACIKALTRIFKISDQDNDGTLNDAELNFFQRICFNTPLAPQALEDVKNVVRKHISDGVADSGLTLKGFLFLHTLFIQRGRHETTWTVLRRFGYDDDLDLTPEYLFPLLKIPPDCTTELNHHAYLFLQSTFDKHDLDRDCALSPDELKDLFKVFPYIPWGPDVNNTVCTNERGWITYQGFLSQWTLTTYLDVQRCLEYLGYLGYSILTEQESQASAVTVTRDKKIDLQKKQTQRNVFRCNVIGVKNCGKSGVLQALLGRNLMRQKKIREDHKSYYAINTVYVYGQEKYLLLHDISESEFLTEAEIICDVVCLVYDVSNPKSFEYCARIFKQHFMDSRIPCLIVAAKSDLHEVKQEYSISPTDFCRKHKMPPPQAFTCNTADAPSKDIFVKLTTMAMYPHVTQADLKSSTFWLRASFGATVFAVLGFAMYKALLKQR
# UniProt O00429: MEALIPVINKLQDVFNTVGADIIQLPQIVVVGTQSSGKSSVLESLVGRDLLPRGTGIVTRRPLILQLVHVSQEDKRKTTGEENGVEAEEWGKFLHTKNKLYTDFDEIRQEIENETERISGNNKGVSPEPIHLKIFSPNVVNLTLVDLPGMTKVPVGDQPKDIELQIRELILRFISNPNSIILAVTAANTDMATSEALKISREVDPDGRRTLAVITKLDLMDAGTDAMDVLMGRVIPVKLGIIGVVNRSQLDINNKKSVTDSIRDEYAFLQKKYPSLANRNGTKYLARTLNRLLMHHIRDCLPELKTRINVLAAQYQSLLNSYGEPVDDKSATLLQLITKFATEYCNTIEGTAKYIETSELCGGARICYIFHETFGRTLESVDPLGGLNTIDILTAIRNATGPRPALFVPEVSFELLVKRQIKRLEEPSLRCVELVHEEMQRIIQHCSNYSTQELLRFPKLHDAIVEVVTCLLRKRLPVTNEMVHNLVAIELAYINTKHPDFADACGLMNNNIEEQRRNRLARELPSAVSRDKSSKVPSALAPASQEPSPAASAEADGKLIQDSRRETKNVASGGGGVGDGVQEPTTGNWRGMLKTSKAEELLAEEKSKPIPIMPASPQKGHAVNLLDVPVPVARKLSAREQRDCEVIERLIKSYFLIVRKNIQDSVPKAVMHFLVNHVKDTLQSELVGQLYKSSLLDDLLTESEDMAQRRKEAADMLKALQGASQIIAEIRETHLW
# No constants are given. Whether binding was seen depends on the method and setting. For part of these data: Binding seen in cells or lysates may run through a third protein. Some binding calls cover weakened binding; strength is not graded here.
# Tests used:
# GST-PS2(1–87) (human) = GST-PS2(1–87) (human) (UniProt P49810); test: pull-down; GST pull-down of recombinant GST-PS2 fragments with recombinant His-Miro2 fragments; bound material eluted with SDS sample buffer, SDS-PAGE and Western blot (Fig. 5C, D); both purified
# GST-PS2(271–361) (human) = GST-PS2(271–361) (human) (UniProt P49810); test: as above
# [1] = target: Mitochondrial Rho GTPase 2 (endogenous, SH-SY5Y cells) (human (endogenous in SH-SY5Y)) (UniProt Q8IXI1); test: co-IP; lysates of SH-SY5Y cells with stable expression of PS2 WT or PS2 D439A; IP with anti-Miro2 or anti-PS2 antibody or normal IgG on Protein A/G magnetic beads; Western blot (Fig. 5E, 7A-C); Miro2 with Mfn1 and Mfn2 decreased, with Drp1 unchanged, in PS2 D439A cells
# [2] = target: presenilin 2 wild type, stably expressed in SH-SY5Y cells (pLV-PS2 WT) (human) (UniProt P49810); test: as above
# [3] = target: Mitochondrial Rho GTPase 1 (endogenous, SH-SY5Y cells) (human (endogenous in SH-SY5Y)) (UniProt Q8IXI2); test: co-IP; detergent lysates of SH-SY5Y cells; IP with rabbit anti-Miro1, anti-Miro2 or anti-PS2 antibody or control IgG on Protein A/G magnetic beads, washed with PBST; Western blot with anti-PS2 and anti-Miro2 (Fig. 5A, B)
# [4] = target: Mitochondrial Rho GTPase 2 (endogenous, SH-SY5Y cells) (human (endogenous in SH-SY5Y)) (UniProt Q8IXI1); test: as above
Substance,binding (GST-PS2(1–87) (human)),binding [1],also measured
His-Miro2(1–219) (from UniProt Q8IXI1 1-219) (domain or fragment),no binding,–,binding (GST-PS2(271–361) (human)): no binding
"presenilin 2 D439A mutant, stably expressed in SH-SY5Y cells (pLV-PS2 D439A) (from UniProt P49810-1 1-448)",–,binds,–
"presenilin 2 wild type, stably expressed in SH-SY5Y cells (pLV-PS2 WT) (from UniProt P49810-1 1-448)",–,binds,–
Drp1 (from UniProt O00429 1-736),–,binds,binding [2]: no binding
"presenilin 2 (endogenous, SH-SY5Y cells) (from UniProt P49810-1 1-448)",–,–,binding [3]: no binding; binding [4]: binds
His-Miro2(220–592) (from UniProt Q8IXI1 220-592) (domain or fragment),no binding,–,–
